Measurements: the supplement of paper PMC12645437, “Orthogonal IMiD-Degron Pairs Induce Selective Protein Degradation in Cells” (ACS Chemical Biology, 2025)
This is one part of the list.

These sequences were tested against no compound (DMSO) (assay: log2 fold change of degron read counts, EGFP-low vs EGFP+ sorted cells; higher = lower degron-EGFP level without compound (poor expression or instability)). Settings: compound: DMSO control; 18 h.
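Note: jurkat cells carrying a lentiviral library of mutant zinc finger degrons fused to EGFP plus mCherry, mCherry+ cells FACS sorted, degron abundance counted by next-generation sequencing.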

Row | Sequence | log2 fold change of degron read counts
1 | FYCEICGHVFTQKGNLLRHIKL | 0.0103
2 | LKCEICGFFCTQKGNLLRHIKL | 0.669
3 | FICEICGALFTQKGNLLRHIKL | -1.06
4 | LKCNQCGFACTQKGNLLRHIKL | 0.359
5 | FGCNICGAEFTQKGNLLRHIKL | -0.876
6 | FVCEQCGACFTQKGNLLRHIKL | -2.6
7 | FNCNQCGHGFTQKGNLLRHIKL | 0.594
8 | FYCPICGHDFTQKGNLLRHIKL | -0.177
9 | FHCDICGAYFTQKGNLLRHIKL | -0.533
10 | FHCNQCGALFTQKGNLLRHIKL | 0.0212
11 | FDCDICGAYFTQKGNLLRHIKL | 0.671
12 | FLCNQCGHVFTQKGNLLRHIKL | -0.216
13 | FVCEICGHWFTQKGNLLRHIKL | -2.68
14 | FICEICGARFTQKGNLLRHIKL | -1.68
15 | FKCPVCGAWFTQKGNLLRHIKL | 0.348
16 | FHCNQCGAKFTQKGNLLRHIKL | -0.443
17 | FCCEICGHRFTQKGNLLRHIKL | -1.93
18 | FTCNICGADFTQKGNLLRHIKL | -1.19
19 | FWCPICGHVFTQKGNLLRHIKL | 0.979
20 | FDCDVCGALFTQKGNLLRHIKL | 0.0243
21 | FNCEICGAAFTQKGNLLRHIKL | -2
22 | FTCEVCGAPFTQKGNLLRHIKL | -1.81
23 | FSCEICGRVFTQKGNLLRHIKL | -1.26
24 | FVCPICGHIFTQKGNLLRHIKL | 0.269
25 | FYCEICGHMFTQKGNLLRHIKL | -0.0769

Row | Sequence | log2 fold change of degron read counts
26 | FWCPICGRAFTQKGNLLRHIKL | -0.269
27 | FVCPVCGARFTQKGNLLRHIKL | -0.191
28 | FQCNVCGAVFTQKGNLLRHIKL | -1.29
29 | FECEICGACFTQKGNLLRHIKL | -1.87
30 | LGCEICGFKCTQKGNLLRHIKL | 0.594
31 | FVCNQCGAPFTQKGNLLRHIKL | -0.299
32 | FNCPVCGACFTQKGNLLRHIKL | -0.0384
33 | FWCPVCGAYFTQKGNLLRHIKL | 1.84
34 | LTCPICGFPCTQKGNLLRHIKL | 1.7
35 | FMCNQCGRGFTQKGNLLRHIKL | -0.554
36 | LLCEICGFCCTQKGNLLRHIKL | 0.615
37 | FICNQCGRQFTQKGNLLRHIKL | -0.591
38 | LQCEICGFKCTQKGNLLRHIKL | -0.755
39 | LQCPICGFMCTQKGNLLRHIKL | 0.875
40 | FKCDQCGAKFTQKGNLLRHIKL | -1.94
41 | FMCPICGHWFTQKGNLLRHIKL | 0.587
42 | LFCEICGFWCTQKGNLLRHIKL | 1.34
43 | FACDVCGAEFTQKGNLLRHIKL | -2.01
44 | FECEVCGAHFTQKGNLLRHIKL | -1.1
45 | FGCDQCGAQFTQKGNLLRHIKL | -0.775
46 | FLCPICGHKFTQKGNLLRHIKL | -0.627
47 | LSCPICGFSCTQKGNLLRHIKL | 0.719
48 | FHCPICGAKFTQKGNLLRHIKL | -0.606
49 | FACPVCGADFTQKGNLLRHIKL | -0.501
50 | FECNICGANFTQKGNLLRHIKL | -1.32
